# In PubChem BioAssay AID1347428 (National Center for Advancing Translational Sciences (NCATS), 2020):
# Where “and” joins values, the source holds several entries; their conditions need not be identical. Equal entries are not always repeated. Out of some 91,000 compounds screened, about 290 (0.32%) were called active. The inconclusive results got no clear call from the source; some entries with a clear call stand among them for comparison. Calls come from the whole dose curve; as a rule, active = well fitted inhibition curve with a large enough effect; inconclusive = small, poorly fitted or top-dose-only effect; inactive = no such curve, though single readings can be large or run the other way. A potency beside an inconclusive call is a rough fit, not a confirmed value.
# Target: Single-stranded DNA cytosine deaminase (Homo sapiens) (UniProt Q9GZX7)
# Test: Primary qHTS assay for inhibitors of Activation Induced Cytidine Deaminase (AID): AID signal; note: nearly all actives have a fitted effect of over 25% in size
# Settings: AID deamination FRET fluorescence, UDG-coupled, 4 h; series mostly up to 115 µM
# Potency is the fitted concentration of half-maximal effect; tags give direction and shape of the fitted curve.
# Sequence of UniProt Q9GZX7 (Q9GZX7 whole entry, looked up): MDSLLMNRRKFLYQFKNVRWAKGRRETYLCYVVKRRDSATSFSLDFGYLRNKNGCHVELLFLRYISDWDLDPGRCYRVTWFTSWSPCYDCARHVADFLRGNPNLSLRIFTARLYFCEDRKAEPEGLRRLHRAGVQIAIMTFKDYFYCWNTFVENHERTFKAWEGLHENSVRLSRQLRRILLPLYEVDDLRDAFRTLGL
row,SMILES,Potency
1,COc1ccc(Cl)cc1NC(=O)CN1C(=O)C(C)(C)c2cc(S(=O)(=O)N3CCCCC3)ccc21,"inconclusive: 28.2 µM [inhibitor, single point]"
2,CONC(=O)C(C)NC(=O)/C=C/c1ccccc1 (stereo not given),inactive
3,Cc1ccc2nc(Cl)c3cc(C(=O)N4CCCCC4C)sc3c2c1 (stereo not given),"inconclusive: 56.2 µM [inhibitor, partial curve, poor fit]"
4,Cc1ccccc1Nc1nn2c(=O)c3ccc(C(=O)NCCc4ccc(Cl)cc4)cc3nc2s1,"inconclusive: 100 µM [inhibitor, single point]"
5,Cc1ccc(-c2cn3nc(N4CCCC(C(=O)NCc5ccc(F)cc5)C4)sc3n2)cc1 (stereo not given),"inconclusive: 100 µM [inhibitor, single point]"
6,CC(C)(C)c1ccc(C(=O)N2CCCC(c3nc4c(nnn4Cc4cccc(F)c4)c(=O)[nH]3)C2)cc1 (stereo not given),"inconclusive: 56.2 µM [inhibitor, partial curve, poor fit]"
7,CCN1CCSc2ccc(C(=O)NCc3cccc(Br)c3)cc21,"inconclusive: 56.2 µM [inhibitor, full curve, poor fit]"
8,O=C(NCC1CCN(Cc2cccc(Cl)c2)CC1)Nc1ccc(F)c(Cl)c1,"inconclusive: 50.1 µM [inhibitor, partial curve, poor fit]"
9,CC(C)OCCCN1C(=O)c2[nH]nc(-c3ccccc3O)c2C1c1ccccc1F (stereo not given),"inconclusive: 100 µM [inhibitor, partial curve, poor fit]"
10,Cc1noc(-c2ccccc2OCC(=O)Nc2ccccc2[N+](=O)[O-])n1,"inconclusive: 89.1 µM [inhibitor, single point]"
11,COc1cccc(CNC(=O)c2ccc(-n3c(C)cc4c3CCCC4)cc2)c1,"inconclusive: 3.55 µM [inhibitor, full curve, poor fit]"
12,CC(C)c1nc2ccc(C(=O)NCc3ccccc3Br)cc2o1,"inconclusive: 25.1 µM [inhibitor, full curve, poor fit]"
13,CC(C)CSc1nc2c(c(=O)n(C)c(=O)n2C)n1C/C=C/c1ccccc1,"inconclusive: 50.1 µM [inhibitor, partial curve]"
14,Cc1ccc2occ(CC(=O)N(Cc3ccc(Cl)cc3)Cc3ccco3)c2c1,"inconclusive: 39.8 µM [inhibitor, full curve, poor fit]"
15,COc1ccccc1S(=O)(=O)Cc1ccc(C(=O)N2CCN(c3cc(Cl)ccc3C)CC2)o1,"inconclusive: 22.4 µM [inhibitor, full curve]"
16,c1cc(CNCCCN2CCCCC2)cs1,inactive
17,COc1ccc(CNc2nc(-c3ccc(Cl)cc3)cc(C(F)(F)F)n2)cc1,"inconclusive: 20 µM [inhibitor, full curve, poor fit]"
18,CC1=C(c2ccc(C)cc2)S(=O)(=O)NC1=NCc1ccccc1Cl,inactive
19,Cc1ccccc1Nc1c(-c2ccc(N3CCOCC3)cc2)nc2cccc(C)n12,"inconclusive: 79.4 µM [inhibitor, partial curve, poor fit]"
20,COc1ccc(-c2nc(CSCC(=O)N3CCN(c4ccccc4F)CC3)c(C)o2)cc1,"inconclusive: 28.2 µM [inhibitor, single point]"

row,SMILES,Potency
1,O=C(CCS(=O)(=O)c1ccc(Br)s1)Nc1cc(C(F)(F)F)cc(C(F)(F)F)c1,"inconclusive: 10 µM [inhibitor, partial curve, poor fit]"
2,O=C(Cn1ccc2ccc(Cl)cc21)NCC1CCC(C(=O)O)CC1 (stereo not given),inactive
3,CC(C)Oc1ccc(C(=O)N(Cc2ccc(N(C)C)cc2)Cc2ccco2)cc1,"inconclusive: 63.1 µM [inhibitor, partial curve, poor fit]"
4,O=S(=O)(c1ccccc1)c1nc(-c2ccc(F)cc2)oc1NCc1ccccc1,"inconclusive: 20 µM [inhibitor, partial curve, poor fit]"
5,Cc1ccc(-c2cnc(-c3ccccc3C(=O)OCC(=O)NCCC#N)o2)cc1,inactive
6,CC(C)CCCC(C)CC1C(C#N)=C(N)SC(N)=C1C#N (stereo not given),inactive
7,CCCc1cc(N2CCN(c3ccccc3F)CC2)n2cnnc2n1,"inconclusive: 100 µM [inhibitor, single point]"
8,O=C(/C=C/Sc1ccccc1)c1ccc(Br)cc1,"inconclusive: 89.1 µM [inhibitor, partial curve, poor fit]"
9,CSc1ccccc1C(=O)Nc1c(F)cccc1F,inactive
10,Cc1cccc(-n2c3nc(=O)[nH]c(=O)c-3cc3ccc(Cl)cc32)c1C,"inconclusive: 89.1 µM [inhibitor, partial curve, poor fit] and inconclusive: 44.7 µM [inhibitor, partial curve, poor fit]"
11,CC(C)CCNC(=S)NCc1ccco1,inactive
12,COc1ccc(OC)c(-c2noc(N3CCN(c4cccc(C(F)(F)F)c4)CC3)n2)c1,"inconclusive: 89.1 µM [inhibitor, partial curve, poor fit]"
13,CNC(=S)N/N=C/c1cccc(Cl)c1,inactive
14,FC(F)(F)c1cccc(Nc2nc3nonc3nc2Nc2ccc(Cl)cc2)c1,"inconclusive: 50.1 µM [inhibitor, partial curve, poor fit]"
15,Cc1nc(-c2ccc(S(=O)(=O)N3CCN(c4ccccc4F)CC3)cc2)co1,"inconclusive: 22.4 µM [inhibitor, partial curve, poor fit]"
16,c1ccc(OCCN2CCC(c3nc4ccccc4s3)CC2)cc1,inactive
17,COc1ccccc1N1CCN(C(=O)c2nn(C)c3c2CS(=O)(=O)c2ccccc2-3)CC1,"inconclusive: 100 µM [inhibitor, single point]"
18,CCCc1cc(=O)[nH]c(Nc2cc(Cl)cc(Cl)c2)n1,inactive
19,COc1cccc(-n2c(SCC(=O)Nc3ccc4c(c3)OCO4)nc3c([nH]c4ccccc43)c2=O)c1,"inconclusive: 22.4 µM [inhibitor, partial curve, poor fit]"
20,CSc1ccc(/C=C(/C#N)C(=O)C(C)(C)C)cc1,"inconclusive: 89.1 µM [inhibitor, partial curve, poor fit]"
